Reference: PubChem BioAssay AID493208 (National Center for Advancing Translational Sciences (NCATS), 2011)
The whole screen tested about 44,000 compounds, of which about 340 (0.77%) were called active. Inconclusive results (about 5%) are left out. The call rests on the fitted dose curve; in most records, active means well fitted inhibition curve with a large enough effect; inconclusive means small, poorly fitted or top-dose-only effect; inactive means flat fitted curve, though single readings scatter. The list shows a part of the results.

Experiment: Acumen qHTS Assay for Inhibitors of the mTORC1 Signaling Pathway in MEF (Tsc2-/-, p53-/-) Cells: Sytravon;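 further: plate controls were DMSO for no effect and rapamycin for full effect; nearly all actives have a fitted effect of over 50% in size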
Conditions: phospho-rpS6 immunofluorescence/PI, 24 h; series mostly up to 38.3 µM; activity change, negative = inhibition: at the top concentration
Method in brief: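 Tsc2-/-, p53-/- mouse embryonic fibroblasts (empty-vector line) exposed to compound 24 hrs at 37 C, fixed, immunostained for phospho-rpS6 and counterstained with propidium iodide. Acumen laser scanning gives % positive cells from Alexa 488/PI ratio, thresholded using 7.5 nM rapamycin; PI count gives viability.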

Activity change, negative = inhibition, inactive:
O=C(NCc1ccco1)c1ccc2c(c1)N(Cc1c(F)cccc1Cl)C(=O)c1ccccc1S2 -1.76%, COc1ccc(C(=O)NCc2ccc3c(c2)CCN3C(=O)c2ccc(C)cc2)cc1 -10.2%, CCOc1ccc(-n2c(=O)c3c4c(sc3n(CC(=O)NC(C)CC)c2=O)CCCC4)cc1 (centres undefined) 1.84%, CC(=O)c1cccc(NC(=O)C2CCN(S(=O)(=O)c3ccc4[nH]c(=O)ccc4c3)CC2)c1 -1.8%, Cc1ccc(CNC(=O)C2CCN(Cc3nc(-c4cccc(Br)c4)oc3C)CC2)cc1 10.5%, Cc1ccc(-n2nc3ccc(NC(=O)COc4ccccc4)cc3n2)cc1Cl -7.8%, Cc1cccc(-n2c(=O)c3ccccc3n(Cc3ccccc3)c2=O)c1 -6.46%, O=C(CSc1nc2c([nH]c3ccccc32)c(=O)n1-c1cccc(C(F)(F)F)c1)N1CCc2ccccc21 0.845%, CCc1cc2c(cc(C(=O)OC)n2Cc2nc(-c3ccc(C)cc3)oc2C)s1 -0.231%, CCOc1ccc(N(CC)C(=O)c2nn(-c3ccc(OC)cc3)c(=O)c3c2c2ccccc2n3C)cc1 -7.1%, O=C(O)c1ccc(CNCc2ccccc2Cl)s1 -1.9%, CCc1ccc(C(=O)N2CCC(c3nc(-c4ccc(S(=O)(=O)N5CCCC5)cc4)no3)CC2)cc1 0.445%, O=S(=O)(c1ccc(Br)cc1)c1nnn2c1nc(NCc1ccc3c(c1)OCO3)c1sccc12 -1.2%, Cc1cccc(CNC(=O)c2ccc3oc(=O)n(Cc4ccccc4)c3c2)c1 -0.083%, CCCSc1ncc(Cl)c(C(=O)Nc2c(C(=O)Nc3ccc(OC)cc3)oc3ccccc23)n1 -1.62%, COc1cc(Cl)c(C)cc1NC(=O)Cn1ncc2c1-c1cc(C)ccc1OC2 0.425%, Cc1ccc(CNC(=O)CCCCCn2c(=O)c3sccc3n(CC(=O)Nc3c(C)cc(C)cc3C)c2=O)cc1 3.36%, COc1ccc(C(=O)Nc2nnc(SCc3cc(=O)n4cccc(C)c4n3)s2)cc1 -19.2%, CC1CCCN(Cc2nc3c(c(=O)n(C)c(=O)n3C)n2Cc2ccc(Cl)cc2)C1 (centres undefined) 1.06%, O=C(Nc1cc(Cl)ccc1Cl)c1cc2nc(-c3ccc4c(c3)OCO4)cc(C(F)(F)F)n2n1 0.644%, CSc1ccc(CNC(=O)C2CCN(c3nc4ccccc4nc3C(F)(F)F)CC2)cc1 -1.92%, COc1ccc(Cl)cc1NC(=O)C1CCN(S(=O)(=O)c2ccc3c(c2)CC(C)N3C(C)=O)CC1 (centres undefined) -4.34%, Cn1nc(C(=O)NCc2ccccc2Cl)c2c1-c1ccccc1S(=O)(=O)C2 -19.6%, Cc1cc(C)cc(NC(=O)CSc2oc(-c3ccco3)nc2S(=O)(=O)c2ccc(Cl)cc2)c1 -21.1%, Cc1cc(C)c(S(=O)(=O)N2CCC(N3CCN(Cc4ccccc4)C(=O)C3=O)CC2)c(C)c1 -12.4%, COc1ccc2c(c1)c1c(c(=O)n(-c3ccccc3C)c(=O)n1C)n2C -12.8%, COc1ccc(Nc2cc(C)c3cc(NC(=O)Cc4ccc(Cl)cc4)ccc3n2)cc1 -11.2%, Cc1ccc(Cl)cc1N1CCN(c2ncnc3c2nc2n3CCCCC2)CC1 1.97%, CCCCNC(=O)C1CCN(c2nc3ccccc3nc2C(F)(F)F)CC1 6.34%, COc1ccc(-n2ncc(C(=O)N3CCN(c4cc(C)ccc4C)CC3)c2C2CCN(C(=O)OC(C)(C)C)CC2)cc1 0.297%, COc1ccc(CNCc2c(C(=O)O)c(C)n(Cc3ccccc3C)c2C)c(OC)c1 -5.94%, O=C(CSc1cn(CCNC(=O)c2c(F)cccc2F)c2ccccc12)Nc1ccc(F)cc1 2.85%, Cc1nnc(NC(=O)CSc2nccn2Cc2ccc(Cl)cc2)s1 -3.61%, CCc1ccccc1NC(=O)Cc1ccc(NC(=O)N2CCCCc3ccccc32)cc1 -11.9%, Cc1nc2nc(NC(=O)CC(C)C)[nH]n2c(=O)c1Cc1ccccc1 -10.4%, COc1ccc(C)cc1NC(=O)c1cc2c(=O)n(Cc3cccnc3)ccc2nc1C -5.83%, Cc1ccc(-c2c(C(=O)N3CCN(c4cc(Cl)ccc4C)CC3)oc(=O)c3ccccc23)cc1 -5.72%, O=C(Nc1ccc(F)c(Cl)c1)N1CCC2(CC1)Oc1ccccc1C(=O)N2Cc1ccccc1F 4.49%, CCc1nnc(SCC(=O)Nc2cc(OC)ccc2OC)nc1CC 4.18%, CCN(Cc1ccccc1)C(=O)c1cc2c(=O)[nH]c3ccc(C)cc3c2s1 -3.68%, Cc1cccc(Cn2c(COc3ccc(Cl)cc3)nc3ccccc32)c1 -16.4%, CCOc1ccc(S(=O)(=O)N(CC(=O)NCCSc2ccc(C)cc2)c2ccccc2)cc1 -17.6%, Cc1ccc(NC(=O)N2CCN(c3ccc(Cl)c(Cl)c3)CC2)cc1 -19.7%, CCC(=O)N1CCc2cc(CNC(=O)c3ccc(OC)cc3)ccc21 -5.1%, CCn1nc(-c2ccccc2)c(-c2ccccc2)c(C(=O)Nc2nc(C)c(C(C)=O)s2)c1=O 1.39%, COc1ccc(-c2nc(CN3CCC(C(=O)NCCc4ccccc4)CC3)c(C)o2)cc1OC -1.22%, CCCCn1cc(S(=O)(=O)c2ccc(C)c(C)c2)c(=O)c2cc(F)c(N(CC)CC)cc21 -2.36%, Cc1ccc(NC(=O)CSc2nc(=O)n(Cc3ccco3)c3c2CCC3)cc1F -5.34%, Cn1c(=O)c(=O)n(C)c2cc(N3CCCC3)c(NC(=O)c3ccccc3F)cc21 -3.11%, O=C(Nc1sc2c(c1C(=O)Nc1cccc(Cl)c1)CCCC2)c1cccs1 11.2%, Cc1ccc2c(c1)-c1onc(C(=O)N3CCN(c4cc(Cl)ccc4C)CC3)c1CO2 9.76%, COC(=O)c1ccccc1NC(=O)c1cc(CN2CCCC2)on1 -5.11%, CCC(=O)N1CCc2cc(CNC(=O)Cc3ccc(F)cc3)ccc21 -4.05%, CCOc1ccc(-c2nnc(SCC(=O)Nc3ccc(C)cc3Cl)o2)cc1 -2.45%, CC1Cc2ccccc2N1S(=O)(=O)c1nnc(NC(=O)c2cccc(F)c2)s1 (centres undefined) 8.66%, CCn1nnc2cc(C(=O)Nc3ccc(C)c(Cl)c3)ccc21 -21.6%, Cc1c(C(=O)N2CCC(C)CC2)c(S(=O)(=O)Nc2cccc(C(F)(F)F)c2)c(C)n1C 0%, CCOC(=O)c1c(NC(=O)COc2ccc(C)cc2C(C)(C)C)sc2c1CCC(C)C2 (centres undefined) -1.63%, CC(=O)c1ccc(N2CCN(S(=O)(=O)c3cc(-c4noc(C)n4)ccc3C)CC2)cc1 -25.2%, Cc1ccc(Cn2c(CNC(=O)Cc3cccc(C)c3)nc3cccnc32)cc1 1.57%, COc1ccc(CNC(=O)Cn2c(=O)ccc3cc(S(=O)(=O)N4CCCC4)ccc32)cc1 0.107%, Cc1nn(S(=O)(=O)c2ccc(C(C)(C)C)cc2)c(C)c1S(=O)(=O)N1CCC(C)CC1 1.55%, COc1ccc2[nH]cc(CCNC(=O)c3cnn(-c4ccc(C)cc4)c3C3CCN(C(=O)OC(C)(C)C)CC3)c2c1 -4.79%, CC(=O)Nc1ccc(NC(=O)C2(c3cccs3)CCOCC2)cc1 -1.44%, COCCN1C(=O)c2oc3ccc(C)cc3c(=O)c2C12C(=O)N(C)c1ccccc12 (centres undefined) -1.47%, COC(=O)c1cc2oc3ccccc3c2n1Cc1nc(-c2cccc(C)c2)oc1C 7.08%, CC(C)N(Cc1ccccc1)C(=O)C1CCCN(c2ncnc3onc(-c4ccc(F)cc4)c23)C1 (centres undefined) -3.84%, COCC(=O)Nc1cccc(-c2nc3cccnc3s2)c1 -16.6%, COc1ccccc1CNC(=O)c1cnc(SC)nc1C -15.3%, Cc1cc2n(n1)CCC(=O)N2Cc1ccc(C(=O)Nc2ccc(F)cc2F)cc1 -18.5%, CCOC(=O)c1ccc(N2C(=O)c3[nH]nc(-c4ccc(OCC)cc4)c3C2c2cccs2)cc1 (centres undefined) -7.62%, CCOC(=O)c1ccc(NC(=O)CC2Nc3ccccc3NC2=O)cc1 (centres undefined) -10%, Cc1cc(-c2ccc(S(=O)(=O)N3CCN(c4ccc(Cl)cc4)CC3)s2)on1 -1.99%, COc1ccc(-c2nc3scc(CCNC(=O)c4cccc(Br)c4)n3n2)cc1 0.825%, COc1ccc(NC(=O)c2sc3nc4c(c(-c5ccc(OC)cc5)c3c2N)C(=O)CC(C)(C)C4)cc1 2.35%, O=C(Nc1cc(-c2nc3cc(Cl)ccc3o2)ccc1Cl)c1cc([N+](=O)[O-])ccc1N1CCOCC1 3.19%, Cc1ccc(CNCc2cccn2-c2nnc(N3CCCC3)s2)cc1 -4.23%, O=C(c1ccccc1Cl)N1CCCCC1CCN1CCOCC1 (centres undefined) 1.66%, CCOc1cccc2c1Oc1nc(-c3ccccc3)nc(SCC(=O)Nc3ccc(F)cc3)c1C2 1.86%, Clc1ccccc1-c1nnc(SCc2nc(-c3ccccc3)no2)n1-c1ccccc1 -14.9%, O=C(NCCc1ccc(Cl)cc1)c1ccc(CSCc2ccc(Cl)cc2)o1 8.11%, CCCC(=O)n1nc(-c2cccnc2)nc1NCc1ccccc1 4.53%, CCc1ccccc1NC(=O)Cn1c(=O)n(CCc2ccccc2)c(=O)c2ccccc21 -5.4%, COc1ccc(N2CCN(C(=O)Nc3ccccc3Cl)CC2)cc1 -6.99%, COc1ccc(Cn2c(CCC(=O)Nc3ccc(OC)c(Cl)c3)nc3cccnc32)cc1 -14.6%, COc1ccc(NS(=O)(=O)c2c(C)nc3scc(C)n3c2=O)cc1 -17.7%, O=C(Nc1ccc2nc(SCC(=O)N3CCOCC3)sc2c1)c1cccc(F)c1 -0.298%, CCCCNC(=O)CCSc1nc(-c2ccc3c(c2)OCO3)cc(C(F)(F)F)n1 0.747%, CCOC(=O)N1CCN(S(=O)(=O)N2CCCC(C(=O)NCc3ccc(OC)cc3OC)C2)CC1 (centres undefined) 15.2%, O=c1oc2ccc(Cl)cc2cc1-c1cn2c(n1)sc1ccccc12 -7.43%, COc1cccc(NC(=O)CSC2=Nc3ccccc3C3=NC(CC(=O)NCc4ccccc4OC)C(=O)N23)c1 (centres undefined) -1.02%, COC(=O)c1scc(-c2ccccc2)c1S(=O)(=O)Nc1ccc(C)c(Cl)c1 -0.557%, CCOc1ccc(NC(=O)c2c(NCc3cccs3)sc3c2CCCCC3)cc1 -2.71%, COc1ccc(C2C=C(c3ccccc3)Nc3nc(NC(=O)/C=C/c4ccccc4OC)nn32)cc1 (centres undefined) -0.343%
